Measured values taken from the supplement of paper PMC4967469.
Lines with a small IC50 respond at low doses; fits outside the tested doses are given as limits. AUC, from the same fit, is the share of area under the viability curve across the 256-fold dose range; the more sensitive the line, the further below 1. For part of these data: A top dose marked as inferred was calculated from the reported fits. For part of these data: Drugs with an entry number were screened twice under separate entries, and the two screens often disagree.

Key:
Experiment in all cases: Viability of human cancer cell lines after 72 h of drug (GDSC screen)
[1] = compound: Cc1ccc(Nc2cc(-c3cccc(N4C(=O)c5ccccc5C4=O)c3)ncn2)cc1NS(C)(=O)=O [KIN001-270]; conditions: top dose 20 µM; top dose inferred
Protocol: (§1)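 Human cancer cell lines in 384-well plates, medium with 10% serum, drug for 72 h over a 256-fold dose range (nine 2-fold or five 4-fold steps up to the top dose). Adherent lines were fixed and stained with the nucleic acid dye Syto60, suspension lines read with resazurin; signal relative to control wells, capped at 0 and 100%. One two-parameter sigmoid per drug and line, fitted in a mixed model over all curves with the slope shared within a line.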

[2] = compound: Cc1cn(-c2cc(NC(=O)c3ccc(C)c(Nc4nccc(-c5cccnc5)n4)c3)cc(C(F)(F)F)c2)cn1 [Nilotinib]; conditions: top dose 2 µM
Protocol: as §1

[3] = compound: CC(C)c1ccccc1Cc1cc(C(=O)Nc2ccc(S(=O)(=O)c3ccccc3C(C)(C)C)cc2)c(O)c(O)c1O [TW-37]; conditions: top dose 5 µM
Protocol: as §1

[4] = compound: NC(=O)c1cccc(-c2cc(Nc3ccc(OC(F)(F)F)cc3)ncn2)c1 [GNF-2]; conditions: top dose 1.28 µM; top dose inferred
Protocol: as §1

[5] = compound: Nc1ccn([C@@H]2O[C@H](CO)[C@@H](O)C2(F)F)c(=O)n1 [Gemcitabine]; conditions: top dose 1.024 µM
Protocol: as §1

[6] = compound: CC(O)(CS(=O)(=O)c1ccc(F)cc1)C(=O)Nc1ccc(C#N)c(C(F)(F)F)c1 [Bicalutamide]; conditions: top dose inferred
Protocol: as §1

[7] = compound: C/C(O)=C(\C#N)C(=O)Nc1cc(Br)ccc1Br [LFM-A13]; conditions: top dose 16 µM; top dose inferred
Protocol: as §1

[8] = compound: CCNC(=O)c1noc(-c2cc(C(C)C)c(O)cc2O)c1-c1ccc(CN2CCOCC2)cc1 [AUY922]; conditions: top dose 0.256 µM; top dose inferred
Protocol: as §1

[9] = compound: O=S(=O)(c1ccccc1)N(CC(F)(F)F)c1ccc(C(O)(C(F)(F)F)C(F)(F)F)cc1 [T0901317]; conditions: top dose 10.24 µM; top dose inferred
Protocol: as §1

[10] = compound: S=C(NCc1ccc2c(c1)OCO2)N1CCN(c2ncnc3c2oc2ccccc23)CC1 [MP470]; conditions: top dose 20 µM; top dose inferred
Protocol: as §1

[11] = top dose 1.024 µM, screen: GDSC drug entry 150
[12] = top dose 10 µM, screen: GDSC drug entry 1502

Row | Cell Line | AUC [1] | IC50 [1] | AUC [2] | IC50 [2] | AUC [3] | IC50 [3] | AUC [4] | IC50 [4] | AUC [5] | IC50 [5] | AUC [6, 11] | IC50 [6, 11] | AUC [7] | IC50 [7] | AUC [8] | IC50 [8] | AUC [9] | IC50 [9] | AUC [10] | IC50 [10] | AUC [6, 12] | IC50 [6, 12]
1 | NCI-H1963 (small cell lung carcinoma, suspension) | 0.973 | > 20 µM | 0.991 | > 2 µM | 0.549 | 0.418 µM | 0.986 | > 1.28 µM | 0.878 | 0.808 µM | 0.991 | > 1.02 µM | 0.977 | > 16 µM | 0.601 | 0.0292 µM | – | – | – | – | – | –
2 | KP-N-YN (neuroblastoma, adherent) | 0.982 | > 20 µM | 0.982 | > 2 µM | – | – | 0.979 | > 1.28 µM | – | – | 0.984 | > 1.02 µM | 0.987 | > 16 µM | 0.897 | > 0.256 µM | 0.959 | > 10.2 µM | 0.891 | > 20 µM | 0.985 | > 10 µM
3 | IM-9 (myeloma, suspension) | – | – | 0.992 | > 2 µM | 0.605 | 0.581 µM | 0.982 | > 1.28 µM | 0.753 | 0.3 µM | 0.991 | > 1.02 µM | 0.983 | > 16 µM | 0.734 | 0.0662 µM | – | – | – | – | 0.983 | > 10 µM
4 | MHH-NB-11 (neuroblastoma, adherent) | 0.981 | > 20 µM | 0.973 | > 2 µM | – | – | 0.985 | > 1.28 µM | 0.904 | > 1.02 µM | 0.985 | > 1.02 µM | 0.985 | > 16 µM | 0.835 | 0.193 µM | 0.985 | > 10.2 µM | 0.979 | > 20 µM | – | –
5 | COLO-824 (breast, adherent) | 0.98 | > 20 µM | 0.982 | > 2 µM | – | – | 0.987 | > 1.28 µM | 0.963 | > 1.02 µM | 0.988 | > 1.02 µM | 0.954 | > 16 µM | 0.697 | 0.0579 µM | 0.949 | > 10.2 µM | 0.909 | > 20 µM | 0.986 | > 10 µM
6 | KELLY (neuroblastoma, adherent) | 0.977 | > 20 µM | 0.985 | > 2 µM | 0.283 | 0.0816 µM | 0.989 | > 1.28 µM | – | – | 0.989 | > 1.02 µM | 0.98 | > 16 µM | 0.85 | 0.167 µM | 0.941 | > 10.2 µM | 0.672 | 3.59 µM | 0.984 | > 10 µM
7 | LB647-SCLC (small cell lung carcinoma, semi-adherent) | – | – | 0.985 | > 2 µM | 0.625 | 0.724 µM | 0.947 | > 1.28 µM | 0.221 | 0.00868 µM | 0.985 | > 1.02 µM | 0.965 | > 16 µM | 0.831 | 0.189 µM | – | – | – | – | – | –
8 | SK-N-FI (neuroblastoma, adherent) | 0.978 | > 20 µM | 0.989 | > 2 µM | – | – | 0.987 | > 1.28 µM | 0.972 | > 1.02 µM | 0.989 | > 1.02 µM | 0.989 | > 16 µM | 0.901 | > 0.256 µM | 0.989 | > 10.2 µM | 0.973 | > 20 µM | 0.987 | > 10 µM
9 | MC116 (B-cell lymphoma, suspension) | 0.915 | 13.1 µM | 0.999 | > 2 µM | 0.491 | 0.298 µM | 0.999 | > 1.28 µM | – | – | 0.999 | > 1.02 µM | 0.999 | > 16 µM | 0.573 | 0.024 µM | 0.997 | > 10.2 µM | 0.926 | 14.1 µM | 0.998 | > 10 µM
10 | KASUMI-1 (acute myeloid leukaemia, suspension) | – | – | 0.455 | 0.0944 µM | 0.698 | 1.13 µM | 0.985 | > 1.28 µM | – | – | – | – | – | – | – | – | 0.923 | > 10.2 µM | 0.506 | 1.29 µM | 0.965 | > 10 µM
11 | DOHH-2 (B-cell lymphoma, suspension) | – | – | 0.986 | > 2 µM | – | – | 0.986 | > 1.28 µM | 0.463 | 0.051 µM | 0.984 | > 1.02 µM | 0.978 | > 16 µM | 0.601 | 0.0301 µM | – | – | – | – | – | –
12 | BT-474 (breast, adherent) | 0.951 | > 20 µM | 0.986 | > 2 µM | 0.831 | 3.71 µM | 0.986 | > 1.28 µM | – | – | 0.986 | > 1.02 µM | 0.975 | > 16 µM | – | – | 0.984 | > 10.2 µM | 0.809 | 12 µM | 0.977 | > 10 µM
13 | ALL-SIL (T-cell leukaemia, suspension) | 0.927 | > 20 µM | 0.037 | < 0.00781 µM | – | – | 0.599 | 0.144 µM | 0.218 | 0.0112 µM | 0.987 | > 1.02 µM | 0.933 | > 16 µM | 0.546 | 0.0209 µM | 0.955 | > 10.2 µM | 0.92 | > 20 µM | 0.984 | > 10 µM
14 | NOS-1 (osteosarcoma, adherent) | 0.926 | > 20 µM | 0.873 | > 2 µM | 0.422 | 0.182 µM | 0.773 | 0.618 µM | – | – | 0.939 | > 1.02 µM | 0.971 | > 16 µM | 0.445 | 0.0109 µM | 0.602 | 1.31 µM | 0.486 | 1.13 µM | 0.557 | 0.928 µM
15 | SK-LMS-1 (soft tissue, adherent) | 0.9 | > 20 µM | 0.987 | > 2 µM | 0.329 | 0.107 µM | 0.986 | > 1.28 µM | – | – | 0.987 | > 1.02 µM | 0.94 | > 16 µM | 0.411 | 0.00924 µM | 0.942 | > 10.2 µM | 0.942 | > 20 µM | 0.967 | > 10 µM
